Binding data for seven molecules are collected here from PMC8076676.

The chains behind the UniProt entries cited, without tags or fusion partners.
UniProt P05412: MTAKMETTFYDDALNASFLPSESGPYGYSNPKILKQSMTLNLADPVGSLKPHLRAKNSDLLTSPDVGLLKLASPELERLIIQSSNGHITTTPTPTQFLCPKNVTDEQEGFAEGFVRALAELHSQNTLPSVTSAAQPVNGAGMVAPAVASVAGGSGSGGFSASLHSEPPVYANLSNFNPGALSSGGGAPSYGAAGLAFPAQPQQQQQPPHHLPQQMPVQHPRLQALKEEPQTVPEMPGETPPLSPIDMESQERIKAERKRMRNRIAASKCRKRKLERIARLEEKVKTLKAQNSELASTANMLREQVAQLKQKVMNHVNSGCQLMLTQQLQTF
UniProt O15379: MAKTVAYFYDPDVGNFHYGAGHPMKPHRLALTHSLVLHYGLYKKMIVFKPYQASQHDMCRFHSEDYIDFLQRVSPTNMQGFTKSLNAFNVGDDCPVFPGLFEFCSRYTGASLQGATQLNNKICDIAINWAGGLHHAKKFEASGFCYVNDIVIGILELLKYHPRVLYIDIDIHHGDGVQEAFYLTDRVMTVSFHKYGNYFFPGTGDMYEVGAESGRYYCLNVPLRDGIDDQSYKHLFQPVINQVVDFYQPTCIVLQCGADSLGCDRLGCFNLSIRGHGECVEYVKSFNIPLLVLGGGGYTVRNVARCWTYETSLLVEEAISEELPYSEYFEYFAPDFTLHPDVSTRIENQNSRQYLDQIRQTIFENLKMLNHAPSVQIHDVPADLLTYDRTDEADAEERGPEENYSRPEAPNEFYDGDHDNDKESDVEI
UniProt Q13547: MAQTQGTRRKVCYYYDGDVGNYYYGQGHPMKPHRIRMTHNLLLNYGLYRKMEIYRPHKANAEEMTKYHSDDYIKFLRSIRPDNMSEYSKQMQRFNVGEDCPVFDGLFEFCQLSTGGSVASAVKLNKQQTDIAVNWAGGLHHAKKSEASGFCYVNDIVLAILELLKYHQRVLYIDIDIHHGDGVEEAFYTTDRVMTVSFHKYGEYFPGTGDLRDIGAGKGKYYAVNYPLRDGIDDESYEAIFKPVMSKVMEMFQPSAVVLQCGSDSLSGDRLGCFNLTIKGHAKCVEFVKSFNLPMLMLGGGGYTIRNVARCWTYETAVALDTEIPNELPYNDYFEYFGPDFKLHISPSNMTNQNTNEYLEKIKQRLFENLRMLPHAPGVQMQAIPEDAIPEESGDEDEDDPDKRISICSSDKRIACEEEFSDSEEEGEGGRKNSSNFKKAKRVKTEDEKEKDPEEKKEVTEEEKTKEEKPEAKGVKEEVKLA

Results are given in words; binding and its absence hold for the method and conditions named. Binding seen in cells or lysates may run through a third protein. Some entries that bind do so weakly or less than the wild type. For some assays here: Tags and fused reporters may be left off the sequences shown.

Experiment [1] deals with T1, HA-p57-Ct, carboxyterminal domain of p57 (human) (UniProt P49918).
T1 sequence: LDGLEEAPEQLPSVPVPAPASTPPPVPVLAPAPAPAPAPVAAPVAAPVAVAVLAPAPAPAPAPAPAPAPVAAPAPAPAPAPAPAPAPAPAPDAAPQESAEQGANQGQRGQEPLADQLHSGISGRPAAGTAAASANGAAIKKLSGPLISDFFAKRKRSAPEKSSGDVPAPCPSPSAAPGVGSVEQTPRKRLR
The experiment can be described thus: co-IP; HA-p57 proteins precipitated with anti-HA antibody coupled to protein G-agarose from extracts of 293 cells co-transfected with FLAG-HDAC1 or FLAG-HDAC3; 4 h, 4°C; IP-buffer 50 mM Tris pH 7.5, 150 mM NaCl, 0.5% NP-40; HDACs detected with anti-FLAG.

Experiment [2] addresses T2, HA-p57-Nt, aminoterminal domain of p57 (human) (UniProt P49918).
T2 sequence: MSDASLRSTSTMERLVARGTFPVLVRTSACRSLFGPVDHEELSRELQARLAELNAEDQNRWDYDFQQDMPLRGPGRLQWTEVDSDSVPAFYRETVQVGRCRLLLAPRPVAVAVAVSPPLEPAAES
Described as above.

Experiment [3] concerns the target T3, HA-tagged p57 (p57Kip2) (human) (UniProt P49918).
T3 sequence: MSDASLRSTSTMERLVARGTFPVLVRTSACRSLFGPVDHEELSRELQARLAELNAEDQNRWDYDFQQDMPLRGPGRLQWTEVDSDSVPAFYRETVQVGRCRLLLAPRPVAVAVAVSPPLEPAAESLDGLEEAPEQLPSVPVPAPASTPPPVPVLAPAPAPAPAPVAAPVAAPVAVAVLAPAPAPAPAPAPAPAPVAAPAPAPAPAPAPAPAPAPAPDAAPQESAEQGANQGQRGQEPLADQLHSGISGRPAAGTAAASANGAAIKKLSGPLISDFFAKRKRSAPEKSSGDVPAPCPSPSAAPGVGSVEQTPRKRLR
The experiment is described as above.

The target of experiment [4] is T4, endogenous p57 of HRT-18 cells (human (endogenous in HRT-18)) (UniProt P49918).
T4 sequence: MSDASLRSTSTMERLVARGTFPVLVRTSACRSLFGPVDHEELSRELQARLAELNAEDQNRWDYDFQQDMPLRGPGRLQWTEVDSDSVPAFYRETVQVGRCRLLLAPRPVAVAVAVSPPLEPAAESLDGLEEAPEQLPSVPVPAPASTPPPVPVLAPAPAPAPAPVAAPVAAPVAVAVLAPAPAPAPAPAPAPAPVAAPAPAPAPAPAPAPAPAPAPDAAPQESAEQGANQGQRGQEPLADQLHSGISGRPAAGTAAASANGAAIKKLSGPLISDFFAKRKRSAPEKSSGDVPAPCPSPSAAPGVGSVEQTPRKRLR
The experiment can be described thus: co-IP; endogenous p57 precipitated from HRT-18 extract with rabbit polyclonal p57 antibody, over night at 4°C; lysis buffer 50 mM Hepes pH 7,5, 150 mM NaCl, 1% Triton X-100, 1 mM EDTA, 1 mM EGTA, 10% Glycerol; c-Jun detected by immunoblot; rabbit IgG IP as control.

Experiment [5] deals with FLAG-tagged c-Jun (human) (UniProt P05412). The experiment can be described thus: co-IP; FLAG-Jun precipitated with anti-FLAG mouse monoclonal antibody coupled to protein G-agarose from extracts of transfected 293 cells; 4 h, 4°C; IP-buffer 50 mM Tris pH 7.5, 150 mM NaCl, 0.5% NP-40; HA-p57 proteins detected by immunoblot.
Another experiment has as its target HA-tagged c-Jun (human) (UniProt P05412). Briefly: co-IP; HA-Jun precipitated with anti-HA mouse monoclonal antibody coupled to protein G-agarose from extracts of transfected cells; 4 h, 4°C; IP-buffer 50 mM Tris pH 7.5, 150 mM NaCl, 0.5% NP-40; FLAG-p57 detected by immunoblot. (A western blot detects proteins with antibodies after separation by electrophoresis.)

Consider “FLAG-HDAC3 (human histone deacetylase 3) (from UniProt O15379 1-428) (enzyme)”, for which the binding result in experiment [1] is reported as “no binding”; in experiment [2], “binds”; in experiment [3], “binds”.

Turning to “endogenous c-Jun of HRT-18 cells (from UniProt P05412 1-331)”, the binding result in experiment [4] is given as “binds”.

As for “FLAG-HDAC1 (human histone deacetylase 1) (from UniProt Q13547 1-482) (enzyme)”, the figures for the binding entry in experiment [1], in experiment [2] and in experiment [3] were “no binding”, “binds” and “binds”, respectively.

B1: HA-p57-Nt, aminoterminal domain of p57 (domain or fragment, UniProt P49918 1-125)
chain: MSDASLRSTSTMERLVARGTFPVLVRTSACRSLFGPVDHEELSRELQARLAELNAEDQNRWDYDFQQDMPLRGPGRLQWTEVDSDSVPAFYRETVQVGRCRLLLAPRPVAVAVAVSPPLEPAAES
For the molecule B1, the binding result in experiment [5] is reported as “binds”.

B2: HA-p57-Ct, carboxyterminal domain of p57 (domain or fragment, UniProt P49918 126-316)
chain: LDGLEEAPEQLPSVPVPAPASTPPPVPVLAPAPAPAPAPVAAPVAAPVAVAVLAPAPAPAPAPAPAPAPVAAPAPAPAPAPAPAPAPAPAPDAAPQESAEQGANQGQRGQEPLADQLHSGISGRPAAGTAAASANGAAIKKLSGPLISDFFAKRKRSAPEKSSGDVPAPCPSPSAAPGVGSVEQTPRKRLR
As to B2, the binding entry in experiment [5] was “no binding”.

B3: FLAG-tagged p57 (p57Kip2) (protein, UniProt P49918 1-316)
chain: MSDASLRSTSTMERLVARGTFPVLVRTSACRSLFGPVDHEELSRELQARLAELNAEDQNRWDYDFQQDMPLRGPGRLQWTEVDSDSVPAFYRETVQVGRCRLLLAPRPVAVAVAVSPPLEPAAESLDGLEEAPEQLPSVPVPAPASTPPPVPVLAPAPAPAPAPVAAPVAAPVAVAVLAPAPAPAPAPAPAPAPVAAPAPAPAPAPAPAPAPAPAPDAAPQESAEQGANQGQRGQEPLADQLHSGISGRPAAGTAAASANGAAIKKLSGPLISDFFAKRKRSAPEKSSGDVPAPCPSPSAAPGVGSVEQTPRKRLR
On to B3, for which, in the experiment with HA-tagged c-Jun (human), the binding result is “binds”.

B4: HA-tagged p57 (p57Kip2) (protein, UniProt P49918 1-316)
chain: MSDASLRSTSTMERLVARGTFPVLVRTSACRSLFGPVDHEELSRELQARLAELNAEDQNRWDYDFQQDMPLRGPGRLQWTEVDSDSVPAFYRETVQVGRCRLLLAPRPVAVAVAVSPPLEPAAESLDGLEEAPEQLPSVPVPAPASTPPPVPVLAPAPAPAPAPVAAPVAAPVAVAVLAPAPAPAPAPAPAPAPVAAPAPAPAPAPAPAPAPAPAPDAAPQESAEQGANQGQRGQEPLADQLHSGISGRPAAGTAAASANGAAIKKLSGPLISDFFAKRKRSAPEKSSGDVPAPCPSPSAAPGVGSVEQTPRKRLR
Regarding B4, the binding entry in experiment [5] is “binds”.
